# Measurements from PubChem BioAssay AID686979 (National Center for Advancing Translational Sciences (NCATS), 2013).
# About 50,000 (12%) of roughly 420,000 compounds were called active. Inconclusive means that the source gave no clear call. Such entries were picked first, then a sample of the others. Calls come from the whole dose curve; as a rule, active = well fitted inhibition curve with a large enough effect; inconclusive = small, poorly fitted or top-dose-only effect; inactive = flat fitted curve, though single readings scatter. Potencies of inconclusive entries are left out as doubtful fits.
# Test: qHTS for Inhibitors of human tyrosyl-DNA phosphodiesterase 1 (TDP1): qHTS in cells in presence of CPT; note: nearly all actives have a fitted effect of over 55% in size
# Conditions: chicken DT40 Tdp1-/-;hTDP1 cells + 20 nM CPT, ATP luminescence, 48 h; activity change, negative = growth inhibition: at 46.2 µM (top of the series) unless noted
# How it was run: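 Cell growth measured by CellTiter-Glo luminescence after a minimum 48 h, 37 C compound exposure with 20 nM CPT in Tdp1-knockout DT40 cells stably expressing hTDP1, seeded 400/well; qHTS titration format.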
# % is set by controls: 0 for no effect and ±100 for the full control effect; potency is the fitted concentration of half-maximal effect; tags give direction and shape of the fitted curve.
Compound,"activity change, negative = growth inhibition",Potency
CC(C)CC(N)c1csc(Nc2ccc(C(=O)NCCO)cc2)n1 (stereo not drawn),inconclusive: -35.6% [inhibitor],–
O=C(Cn1nc(-c2ccccc2)c2ccccc2c1=O)Nc1ccc(F)cc1,inactive: -21.9%,–
O=C(Nc1ccc(S(=O)(=O)Nc2nccs2)cc1)c1cc(-c2ccccc2Cl)nc2ccccc12,inactive: -28.5%,–
COC(=O)c1sccc1NC(=O)c1c(F)c(F)c(F)c(F)c1F,–,"inconclusive [inhibitor, single point]"
Cc1ccc(OCCSc2nc3ccccc3n2CC(=O)O)cc1,inactive: 2.94%,–
Cc1ccc(N(CC(=O)Nc2ccccc2-c2ccccc2)S(=O)(=O)c2ccccc2)cc1,–,active: 16.4 µM
CCCCCCn1c(O)c(/C=C2\C=NN=C2c2ccccc2)sc1=S,–,"inconclusive [inhibitor, single point]"
Cc1ccc(C(=O)Oc2ccc(-c3nnco3)cc2)o1,inactive: -0.829%,–
O=C1[C@@H]2Cc3c([nH]c4ccccc34)C(c3ccc([N+](=O)[O-])cc3)N2C(=O)CN1C1CC1 (stereo partly drawn),–,active: 2.59 µM
COc1cc(NC(=O)CN2C(=O)CSc3ccc(S(=O)(=O)N4CCCC4)cc32)cc(OC)c1,–,"inconclusive [inhibitor, partial curve]"
O=C1CCCN1c1ccc(S(=O)(=O)NCc2ccc(F)cc2)cc1,–,active: 20.6 µM
COc1cc(C=c2c3ccccc3n3c2cc(-c2ccccc2)[n+]3C)cc(OC)c1OC,–,active: 5.17 µM
S=C(Nc1ccccc1)Nc1cc(Cl)ccc1Oc1ccccc1,–,"inconclusive [inhibitor, single point]"
O=C(CSc1nnc(Cn2c(=O)sc3ccccc32)n1-c1ccccc1)NCC1CCCO1 (stereo not drawn),–,"inconclusive [inhibitor, partial curve, poor fit]"
COc1ccc(C(=O)N2CCCCC2c2cc(C(=O)NCc3ccccc3)no2)cc1 (stereo not drawn),–,"inconclusive [inhibitor, partial curve]"
COc1cccc(OCc2cc(C(=O)NC3CCOCC3)no2)c1,inactive: -6.58%,–
Cc1cc(C)c2c(N)c(C(=O)c3ccc(Cl)c(Cl)c3)sc2n1,–,"inconclusive [inhibitor, single point]"
Cc1cc(OCCOCCN2CCCC2)ccc1C(C)C,–,"inconclusive [inhibitor, single point]"
O=C(OCc1cn([C@H]2CN(C(=O)c3cccs3)[C@@H](c3ccccc3)C[C@@H]2O)nn1)c1ccccc1,–,"inconclusive [inhibitor, single point]"
Cc1c(/C(O)=C2/C(=O)C(=O)N(Cc3cccnc3)C2c2ccccn2)cnn1-c1ccccc1 (stereo not drawn),inactive: 5.34%,–
CN1CCN(c2nc3ccccc3nc2C(C#N)S(=O)(=O)c2ccccc2)CC1 (stereo not drawn),inactive: 1.19%,–
Cc1ccc(-c2nc3ccccc3c(=O)n2O)cc1,inactive: 20.1%,–
COCCn1c(=O)c(-c2ccc(Cl)cc2)nc2cnc(OCc3ccccc3)nc21,inactive: 16.9%,–
COc1ccc2nc(SCc3ccccc3C)nc(C)c2c1,inactive: -26.9%,–

Compound,"activity change, negative = growth inhibition",Potency
COc1cccc(S(=O)(=O)Nc2ccc3c(c2)[C@@H]2C[C@H](CC(=O)NCCc4ccccc4)O[C@H](CO)[C@@H]2O3)c1,–,active: 23.1 µM
COc1cc2c(cc1OC)CN(C(=O)C1CCCN1S(=O)(=O)c1ccc(F)cc1)CC2 (stereo not drawn),inactive: -9.65%,–
CCc1c(C2(O)CCCCC2)[nH]c2cnccc12,–,"inconclusive [inhibitor, single point]"
Cc1ccc(Cl)cc1N(C)C(=O)c1cn(C2CCCCC2)c(=O)c2c1c1ccccc1n2C,–,"inconclusive [inhibitor, single point]"
CC(=O)Cc1nsc(Nc2ccc(C)cc2)n1,–,"inconclusive [inhibitor, single point]"
Cc1ccc(C(=O)Nc2ccccc2C(=O)N2CCCC(C)C2)cc1 (stereo not drawn),inactive: 0.506%,–
CC(C)(C)c1ccc(Cn2c(=N)n(CC(O)c3ccco3)c3ccccc32)cc1 (stereo not drawn),–,active: 2.59 µM
O=C(Nc1cccc(-c2nnc(-c3ccccc3)o2)c1)C1CC1,–,"inconclusive [inhibitor, single point]"
COc1ccc(-c2nc(CCNS(=O)(=O)c3ccc4c(c3)OCCO4)cs2)cc1,–,active: 18.4 µM
CCCCCCCCCCCCCCC(C(=O)O)C(O)(CC(=O)OC)C(=O)O (stereo not drawn),–,active: 10.3 µM
CC1(C)Cc2cccc(OCC(=O)N3CCN(c4ccc(F)cc4)CC3)c2O1,–,"inconclusive [inhibitor, single point]"
CCN(Cc1ccccc1)S(=O)(=O)c1ccc2c(c1)CC(C)N2C(=O)C1CCC1 (stereo not drawn),–,"inconclusive [inhibitor, single point]"
CCOC(=O)c1nc(C)nc(Sc2n[nH]c(-c3ccccc3)n2)c1C,inactive: 5.76%,–
Cc1cc(C(=O)N/N=C2\CC(=O)c3ccccc32)c(C)n1-c1ccc(F)cc1,–,"inconclusive [inhibitor, single point]"
O=C(O)c1cccc(N2C(=O)/C(=C/c3ccc(SCc4ccc(Cl)cc4)o3)SC2=S)c1,–,active: 20.6 µM
Cc1ccc(Cl)cc1NC(=O)C1CC(=O)Nc2ncnn21 (stereo not drawn),inactive: 7.01%,–
Cc1ccc(N(CC(=O)Nc2cccc(Cl)c2)S(=O)(=O)c2cccs2)cc1,–,"inconclusive [inhibitor, single point]"
CCOC(=O)N1CCN(C(c2cccnc2)c2ccc3cccnc3c2O)CC1 (stereo not drawn),–,active: 3.66 µM
CC(OC(=O)CC1Sc2ccccc2NC1=O)C(=O)NC1CCCC1 (stereo not drawn),inactive: 5.9%,–
Cc1ccc(N2C(=O)CC(Sc3nccc(C)n3)C2=O)cc1 (stereo not drawn),–,"inconclusive [inhibitor, single point]"
Cc1c(-n2c(O)c(C3=c4ccccc4=NC3=O)sc2=S)c(=O)n(-c2ccccc2)n1C,inconclusive: -30.8% [inhibitor],–
Cc1ccc2onc(CC(=O)Nc3ccc(C(C)C)cc3)c2c1,–,"inconclusive [inhibitor, single point]"
COc1ccc(C(=O)NC2CCN(S(=O)(=O)c3ccccc3)CC2)cc1,inconclusive: -35.8% [inhibitor],–
CCOC(=O)C1=CCC2c3c(c4ccccc4n3C)C(=O)C1N2C(=O)OC(C)(C)C (stereo not drawn),–,"inconclusive [inhibitor, single point]"
